Test results taken from patent US11178870B2 (priority 2017, dated 2021).

system: Colletotrichum orbiculare; details: in vivo

**Q.** For CN1C(=O)CCC(c2cccs2)=C1c1c(F)cccc1F [Compound 1], which “Test H control value” is on record?
**A.** Its value is “H (key: H shows the control value more than 50%; L shows the control value of 50% or less)”.

**Q.** How did the “Test H control value” turn out when CN1C(=O)CCC(c2ccsc2)=C1c1c(F)cccc1F [Compound 3] was run?
**A.** The value was “L (key: H shows the control value more than 50%; L shows the control value of 50% or less)”.

**Q.** CCN1C(=O)CCC(c2ccsc2)=C1c1c(F)cccc1F [Compound 4] was tested. Which “Test H control value” did it give?
**A.** Its value is “H (key: H shows the control value more than 50%; L shows the control value of 50% or less)”.

**Q.** CCn1c(-c2c(F)cc(F)cc2F)c(C2OCCO2)cc(Cl)c1=O [Compound 9] was tested. Which “Test H control value” did it give?
**A.** The value was “H (key: H shows the control value more than 50%; L shows the control value of 50% or less)”.

**Q.** CCn1c(-c2c(F)cc(OC)cc2F)c(C2OCCCO2)cc(Cl)c1=O [Compound 10] was tested. Which “Test H control value” did it give?
**A.** Its value is “H (key: H shows the control value more than 50%; L shows the control value of 50% or less)”.

**Q.** Which “Test H control value” does the source give for CCn1c(-c2c(F)cccc2F)c(C2OCCCO2)cc(Cl)c1=O [Compound 11] here?
**A.** The value was “L (key: H shows the control value more than 50%; L shows the control value of 50% or less)”.

**Q.** Which “Test H control value” does the source give for CCn1c(-c2c(F)cc(OC)cc2F)c(C2OCCO2)cc(Cl)c1=O [Compound 12] here?
**A.** Its value is “H (key: H shows the control value more than 50%; L shows the control value of 50% or less)”.

**Q.** How did the “Test H control value” turn out when CCn1c(-c2c(F)cccc2F)c(C2OCCO2)cc(Cl)c1=O [Compound 13] was run?
**A.** Its value is “H (key: H shows the control value more than 50%; L shows the control value of 50% or less)”.

**Q.** For Cn1c(-c2c(F)cccc2F)c(-c2cccs2)ccc1=O [Compound 14], which “Test H control value” is on record?
**A.** Its value is “L (key: H shows the control value more than 50%; L shows the control value of 50% or less)”.

**Q.** With Cn1c(-c2c(F)cccc2F)c(-c2ccsc2)ccc1=O [Compound 15] as the compound, how does the “Test H control value” read?
**A.** The value was “H (key: H shows the control value more than 50%; L shows the control value of 50% or less)”.

**Q.** Which “Test H control value” does the source give for CCn1c(-c2c(F)cccc2F)c(-c2ccsc2)ccc1=O [Compound 16] here?
**A.** Its value is “H (key: H shows the control value more than 50%; L shows the control value of 50% or less)”.

**Q.** For CCn1c(-c2c(F)cc(F)cc2F)c(-c2nn(C)cc2C)cc(Cl)c1=O [Compound 19], which “Test H control value” is on record?
**A.** The value was “H (key: H shows the control value more than 50%; L shows the control value of 50% or less)”.

**Q.** CCn1c(-c2c(F)cc(F)cc2F)c(-c2c(Cl)cnn2C)cc(Cl)c1=O [Compound 22] was tested. Which “Test H control value” did it give?
**A.** The value was “H (key: H shows the control value more than 50%; L shows the control value of 50% or less)”.

**Q.** Which “Test H control value” does the source give for CCn1c(-c2c(F)cc(OC)cc2F)c(-c2ccnn2C)cc(Cl)c1=O [Compound 28] here?
**A.** Its value is “H (key: H shows the control value more than 50%; L shows the control value of 50% or less)”.

**Q.** CCn1c(-c2c(F)cc(OC)cc2F)c(-c2c(Cl)cnn2C)cc(Cl)c1=O [Compound 29] was tested. Which “Test H control value” did it give?
**A.** The value was “H (key: H shows the control value more than 50%; L shows the control value of 50% or less)”.

**Q.** CCN1C(=O)CCC(n2cccn2)=C1c1c(F)cccc1F [Compound 30] was tested. Which “Test H control value” did it give?
**A.** The value was “L (key: H shows the control value more than 50%; L shows the control value of 50% or less)”.

**Q.** Which “Test H control value” does the source give for CCn1c(-c2c(F)cccc2F)c(-n2cccn2)ccc1=O [Compound 31] here?
**A.** Its value is “H (key: H shows the control value more than 50%; L shows the control value of 50% or less)”.

**Q.** CCn1c(-c2ccc(F)cc2Cl)c(-c2cnco2)cc(Cl)c1=O [Compound 32] was tested. Which “Test H control value” did it give?
**A.** The value was “L (key: H shows the control value more than 50%; L shows the control value of 50% or less)”.

**Q.** Which “Test H control value” does the source give for CCn1c(-c2ccc(OC)cc2Cl)c(-c2cnco2)cc(Cl)c1=O [Compound 33] here?
**A.** The value was “L (key: H shows the control value more than 50%; L shows the control value of 50% or less)”.

**Q.** With CCn1c(-c2c(F)cc(OC)cc2F)c(-c2cnco2)cc(Cl)c1=O [Compound 37] as the compound, how does the “Test H control value” read?
**A.** Its value is “H (key: H shows the control value more than 50%; L shows the control value of 50% or less)”.

**Q.** How did the “Test H control value” turn out when CCn1c(-c2ccc(F)cc2Cl)c(-c2ocnc2C)cc(Cl)c1=O [Compound 38] was run?
**A.** The value was “L (key: H shows the control value more than 50%; L shows the control value of 50% or less)”.

**Q.** CCn1c(-c2ccc(OC)cc2Cl)c(-c2ocnc2C)cc(Cl)c1=O [Compound 39] was tested. Which “Test H control value” did it give?
**A.** Its value is “H (key: H shows the control value more than 50%; L shows the control value of 50% or less)”.

**Q.** With CCn1c(-c2c(F)cccc2F)c(-c2cnco2)cc(Cl)c1=O [Compound 42] as the compound, how does the “Test H control value” read?
**A.** Its value is “H (key: H shows the control value more than 50%; L shows the control value of 50% or less)”.

**Q.** How did the “Test H control value” turn out when CCn1c(-c2c(F)cccc2F)c(-c2ccsc2Br)ccc1=O [Compound 44] was run?
**A.** Its value is “H (key: H shows the control value more than 50%; L shows the control value of 50% or less)”.

**Q.** For CCn1c(-c2c(F)cccc2F)c(-c2ccsc2Br)cc(Cl)c1=O [Compound 45], which “Test H control value” is on record?
**A.** The value was “L (key: H shows the control value more than 50%; L shows the control value of 50% or less)”.

**Q.** How did the “Test H control value” turn out when CCn1c(-c2c(F)cc(F)cc2F)c(-n2ncnc2Br)cc(Br)c1=O [Compound 46] was run?
**A.** The value was “H (key: H shows the control value more than 50%; L shows the control value of 50% or less)”.

**Q.** CCn1c(-c2c(F)cc(F)cc2F)c(-n2cncn2)cc(Br)c1=O [Compound 47] was tested. Which “Test H control value” did it give?
**A.** The value was “H (key: H shows the control value more than 50%; L shows the control value of 50% or less)”.

**Q.** CCn1c(-c2c(F)cc(F)cc2F)c(-n2ncnc2I)cc(Cl)c1=O [Compound 48] was tested. Which “Test H control value” did it give?
**A.** The value was “H (key: H shows the control value more than 50%; L shows the control value of 50% or less)”.

**Q.** Which “Test H control value” does the source give for CCn1c(-c2c(F)cccc2F)c(-c2ocnc2Br)cc(Cl)c1=O [Compound 49] here?
**A.** Its value is “H (key: H shows the control value more than 50%; L shows the control value of 50% or less)”.

**Q.** For CCn1c(-c2c(F)cccc2F)c(-c2ocnc2Cl)cc(Cl)c1=O [Compound 50], which “Test H control value” is on record?
**A.** The value was “H (key: H shows the control value more than 50%; L shows the control value of 50% or less)”.

**Q.** Which “Test H control value” does the source give for CCn1c(-c2c(F)cccc2F)c(-c2ocnc2F)cc(Cl)c1=O [Compound 51] here?
**A.** Its value is “H (key: H shows the control value more than 50%; L shows the control value of 50% or less)”.

**Q.** With CCn1c(-c2c(F)cccc2F)c(-n2cc(Cl)cn2)ccc1=O [Compound 52] as the compound, how does the “Test H control value” read?
**A.** The value was “H (key: H shows the control value more than 50%; L shows the control value of 50% or less)”.

**Q.** CCn1c(-c2c(F)cccc2F)c(-n2cc(Cl)cn2)cc(Cl)c1=O [Compound 53] was tested. Which “Test H control value” did it give?
**A.** The value was “H (key: H shows the control value more than 50%; L shows the control value of 50% or less)”.

**Q.** With CCn1c(-c2c(F)cccc2F)c(-c2ccsc2Br)cc(Br)c1=O [Compound 54] as the compound, how does the “Test H control value” read?
**A.** The value was “L (key: H shows the control value more than 50%; L shows the control value of 50% or less)”.

**Q.** CCn1c(-c2c(F)cccc2F)c(-c2cccnc2Cl)cc(Br)c1=O [Compound 55] was tested. Which “Test H control value” did it give?
**A.** Its value is “H (key: H shows the control value more than 50%; L shows the control value of 50% or less)”.

**Q.** Which “Test H control value” does the source give for O=c1ccc(-c2cccnc2Cl)c(-c2c(F)cccc2F)n1CC(F)F [Compound 56] here?
**A.** The value was “H (key: H shows the control value more than 50%; L shows the control value of 50% or less)”.

**Q.** For O=c1c(Cl)cc(-c2cccnc2Cl)c(-c2c(F)cccc2F)n1CC(F)F [Compound 57], which “Test H control value” is on record?
**A.** The value was “H (key: H shows the control value more than 50%; L shows the control value of 50% or less)”.

**Q.** For O=c1ccc(-c2cccnc2Cl)c(-c2c(F)cccc2F)n1CC(F)(F)F [Compound 58], which “Test H control value” is on record?
**A.** Its value is “H (key: H shows the control value more than 50%; L shows the control value of 50% or less)”.

**Q.** For O=c1c(Br)cc(-c2cccnc2Cl)c(-c2c(F)cccc2F)n1CC(F)F [Compound 59], which “Test H control value” is on record?
**A.** The value was “H (key: H shows the control value more than 50%; L shows the control value of 50% or less)”.

**Q.** With O=c1c(Cl)cc(-c2cccnc2Cl)c(-c2c(F)cccc2F)n1CC(F)(F)F [Compound 60] as the compound, how does the “Test H control value” read?
**A.** The value was “L (key: H shows the control value more than 50%; L shows the control value of 50% or less)”.

**Q.** How did the “Test H control value” turn out when CCn1c(-c2c(F)cc(F)cc2F)c(-c2cccnc2Cl)ccc1=O [Compound 61] was run?
**A.** Its value is “H (key: H shows the control value more than 50%; L shows the control value of 50% or less)”.

**Q.** With CCn1c(-c2c(F)cc(F)cc2F)c(-c2cccnc2Cl)cc(Cl)c1=O [Compound 62] as the compound, how does the “Test H control value” read?
**A.** The value was “H (key: H shows the control value more than 50%; L shows the control value of 50% or less)”.

**Q.** For CCn1c(-c2c(F)cc(F)cc2F)c(-c2cccnc2Cl)cc(Br)c1=O [Compound 63], which “Test H control value” is on record?
**A.** The value was “H (key: H shows the control value more than 50%; L shows the control value of 50% or less)”.

**Q.** With O=c1c(Br)cc(-c2cccnc2Cl)c(-c2c(F)cccc2F)n1CC(F)(F)F [Compound 64] as the compound, how does the “Test H control value” read?
**A.** The value was “L (key: H shows the control value more than 50%; L shows the control value of 50% or less)”.

**Q.** With CCn1c(-c2c(F)cccc2F)c(-c2cccnc2Cl)cc(I)c1=O [Compound 65] as the compound, how does the “Test H control value” read?
**A.** The value was “H (key: H shows the control value more than 50%; L shows the control value of 50% or less)”.

**Q.** Which “Test H control value” does the source give for CCn1c(-c2c(F)cccc2F)c(-c2cccnc2Cl)cc(C)c1=O [Compound 66] here?
**A.** The value was “H (key: H shows the control value more than 50%; L shows the control value of 50% or less)”.

**Q.** For O=c1ccc(-c2cccnc2Cl)c(-c2c(F)cc(F)cc2F)n1CC(F)F [Compound 67], which “Test H control value” is on record?
**A.** Its value is “H (key: H shows the control value more than 50%; L shows the control value of 50% or less)”.

**Q.** Which “Test H control value” does the source give for O=c1c(Cl)cc(-c2cccnc2Cl)c(-c2c(F)cc(F)cc2F)n1CC(F)F [Compound 68] here?
**A.** Its value is “H (key: H shows the control value more than 50%; L shows the control value of 50% or less)”.

**Q.** Which “Test H control value” does the source give for O=c1c(Br)cc(-c2cccnc2Cl)c(-c2c(F)cc(F)cc2F)n1CC(F)F [Compound 69] here?
**A.** The value was “H (key: H shows the control value more than 50%; L shows the control value of 50% or less)”.

**Q.** CCn1c(-c2c(F)cc(OC)cc2F)c(-n2cc(Cl)cn2)cc(Br)c1=O [Compound 73] was tested. Which “Test H control value” did it give?
**A.** Its value is “H (key: H shows the control value more than 50%; L shows the control value of 50% or less)”.
